Laboratory results from JP2021165268A (dated 2021).

How the values were obtained:
[1] = molecular target: T1, huD2-Fc (human, UniProt P22607 151-244); experiment: ELISA, plate-coated antigen, fynomer with 9E10
T1 construct: domain: D2; also called huFGFR3-D2; human FGFR3c D2 domain; not shown: Fc part
T1 sequence: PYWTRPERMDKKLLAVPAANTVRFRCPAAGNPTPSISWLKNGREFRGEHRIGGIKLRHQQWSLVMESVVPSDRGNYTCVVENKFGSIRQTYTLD

[2] = molecular target: T2, huD1-Fc (human, UniProt P22607 23-126); experiment: ELISA, plate-coated antigen, fynomer with 9E10
T2 construct: domain: D1; also called huFGFR3-D1; hFGFR3-D1; not shown: Fc part
T2 sequence: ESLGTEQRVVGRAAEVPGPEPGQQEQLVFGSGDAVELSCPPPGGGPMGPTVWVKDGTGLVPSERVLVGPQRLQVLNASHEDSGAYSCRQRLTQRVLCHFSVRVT

| Binder | binding result [1] | binding result [2] |
| --- | --- | --- |
| FF44L65G12 (designed binder, C-terminal myc-His6 tag; not shown: C-terminal myc-hexahistidine tag (pQE12 construct)) GVTLFVALYDYEVYGPTPMLSFHKGEKFQILRGGQGPYWEARSLTTGETGLIPSNYVAPVDSIQ | no binding (tested: 200 nM fynomer) | no binding (tested: 200 nM fynomer) |
| FF2L4C3 (designed binder, also called parent fynomer; not shown: C-terminal myc-hexahistidine tag (pQE12 construct)) GVTLFVALYDYEVYGPTPMLSFHKGEKFQILNSSEGPYWEARSLTTGETGLIPSNYVAPVDSIQ | no binding (tested: 200 nM fynomer) | no binding (tested: 200 nM fynomer) |
| FF44L65G7 (designed binder, C-terminal myc-His6 tag; not shown: C-terminal myc-hexahistidine tag (pQE12 construct)) GVTLFVALYDYEVYGPTPMLSFHKGEKFQILRGGDGPYWEARSLTTGETGLIPSNYVAPVDSIQ | no binding (tested: 200 nM fynomer) | no binding (tested: 200 nM fynomer) |

Further lines, results first:

| binding result [1] | binding result [2] | Binder |
| --- | --- | --- |
| no binding (tested: 200 nM fynomer) | no binding (tested: 200 nM fynomer) | FF43L65D5 (designed binder, C-terminal myc-His6 tag; not shown: C-terminal myc-hexahistidine tag (pQE12 construct)) GVTLFVALYDYEVYGPTPMLSFHKGEKFQILRKGKGPYWEARSLATGETGLIPSNYVAPVDSIQ |
| no binding (tested: 200 nM fynomer) | no binding (tested: 200 nM fynomer) | FF44L65B7 (designed binder, Fynomer derived from FF2L4C3; C-terminal myc-His6 tag; not shown: C-terminal myc-hexahistidine tag (pQE12 construct)) GVTLFVALYDYEVYGPTPMLSFHKGEKFQILRRGSGPYWEARSLTTGETGLIPSNYVAPVDSIQ |
| no binding (tested: 200 nM fynomer) | no binding (tested: 200 nM fynomer) | FF48L66G7 (designed binder, C-terminal myc-His6 tag; not shown: C-terminal myc-hexahistidine tag (pQE12 construct)) GVTLFVALYDYEVYGPTPMLSFHKGEKFQILKGGSGPYWEARSLTTGETGLIPSNYVAPVDSIQ |
